PubChem BioAssay AID1745845 (National Center for Advancing Translational Sciences (NCATS), 2022)
The whole screen tested about 360,000 compounds, of which about 2,600 (0.72%) were called active. Inconclusive results, whose numbers are uncertain, are shown with a selection of clear calls. The call rests on the fitted dose curve; in most records, active means well fitted inhibition curve with a large enough effect; inconclusive means small, poorly fitted or top-dose-only effect; inactive means no such curve, though single readings can be large or run the other way. Potencies of inconclusive entries are doubtful fits and often do not repeat.

Test: Primary qHTS for Inhibitors of ATXN expression; further: nearly all actives have a fitted effect of over 55% in size
Details: HEK-293 ATXN2-luciferase reporter, luminescence, 24 h; series mostly up to 57 µM
Summary of the method: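 ATXN2-luciferase reporter cells (luciferase flanked by upstream and downstream ATXN2 gene portions) were treated 24 h at 37 °C with compounds at up to 57 uM. SteadyGlo luminescence gave expression; GF-AFC fluorescence gave viability.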
Potency means the concentration at half of the fitted maximal effect; tags describe the fitted curve by direction and shape.

Row | SMILES | Potency
1 | CC1(C(=O)Nc2ccccc2)Cc2c(-c3ccc4c(c3)OCO4)ccnc2O1 (centres undefined) | inactive
2 | CC1(C(=O)N/N=C/c2c(F)c(F)c(F)c(F)c2F)CC1(Cl)Cl (centres undefined) | inconclusive: 20 µM [inhibitor, single point]
3 | CC(=O)Nc1ccc(NC(=O)c2cc3c(=O)n(Cc4cccnc4)ccc3nc2C)cc1 | inactive
4 | OC[C@@H]1CN(Cc2ccc(-c3ccccc3)cc2)C[C@H](n2cnc3c(N4CCOCC4)ncnc32)O1 | inconclusive: 39.8 µM [inhibitor, single point]
5 | COc1ccc(NC(=O)CCSc2ccc(C)cc2)cc1S(=O)(=O)Nc1ccccc1Cl | inactive
6 | COC(=O)c1ccc(C2C=C(c3ccc(Cl)cc3)Nc3nc4ccccc4n32)cc1 (centres undefined) | inconclusive: 39.8 µM [inhibitor, single point]
7 | COc1cccc(/C=N/NC(=O)Cn2cnc3c2c(=O)n(C)c(=O)n3C)c1 | inactive
8 | COc1ccc(C)cc1NC(=O)Nc1cccc(C)c1 | inactive
9 | CC(/C=N/NC(=O)c1cc(-c2ccccc2)nc2ccccc12)=C\c1ccco1 | inactive
10 | O=C(C1CCN(Cc2ccccc2)CC1)N1CCN(C/C=C/c2ccccc2)CC1 | inactive
11 | COC(=O)NC(NC(=S)Nc1ccc([N+](=O)[O-])cc1)C(Cl)(Cl)Cl (centres undefined) | inconclusive: 31.6 µM [inhibitor, single point]
12 | O=C(CSc1nnc(CNC(=O)C23CC4CC(CC(C4)C2)C3)n1-c1ccc(F)cc1)Nc1ccc(F)cc1 | inactive
13 | O=C(CCN1C(=O)/C(=C/c2ccccc2)SC1=S)N1CCCCCC1 | inconclusive: 39.8 µM [inhibitor, single point]
14 | Cc1ccc(-n2c(=S)[nH]c3c(oc4ccccc43)c2=O)cc1 | inconclusive: 35.5 µM [inhibitor, single point]
15 | C=CCn1c(CNc2ccc(C)cc2)nnc1SCC(=O)N/N=C/c1ccc(O)cc1O | active: 20 µM
16 | O=C(N/N=C/c1cn(Cc2cccc(F)c2)c2ccccc12)c1cc(O)cc(O)c1 | inconclusive: 3.55 µM [inhibitor, full curve]
17 | C=CCn1c(SCc2c(C)noc2C)nc2ccccc2c1=O | inconclusive: 1.12 µM [inhibitor, partial curve, poor fit]
18 | COc1cc2c(cc1OC)C(c1ccc(Cl)cc1)N(c1ccc(C)c(F)c1)C(=O)C2 (centres undefined) | inconclusive: 25.1 µM [inhibitor, single point]
19 | Cc1cc(C(=O)N2CCC(Cc3ccccc3)CC2)c(C)o1 | inconclusive: 6.31 µM [inhibitor, partial curve, poor fit]
20 | Cc1cc2nc(-c3ccco3)c(Cc3cccc(Cl)c3)n2c(C)c1Br | inconclusive: 22.4 µM [inhibitor, single point]
21 | CCCn1c(Nc2nc3ccccc3n2C)nc2ccccc21 | inconclusive: 39.8 µM [inhibitor, single point]
22 | CCc1ccc(Nc2cc(C)nc3nc(Cc4ccc(Cl)cc4)nn23)cc1 | inconclusive: 25.1 µM [inhibitor, single point]

Row | SMILES | Potency
23 | COc1ccc(C(CNC(=O)c2oc3ccccc3c2C)N2CCCC2)cc1 (centres undefined) | inactive
24 | CCCCNC(=S)NCc1ccc2[nH]c3c(c2c1)CCCC3 | inconclusive: 14.1 µM [inhibitor, partial curve, poor fit]
25 | Cn1nc(CC(=O)Nc2ccc3c(c2)OCCO3)c2ccccc2c1=O | inconclusive: 2.51 µM [inhibitor, partial curve, poor fit]
26 | CC(C)(C)c1ccc(-c2noc(CCC(N)=O)n2)cc1 | active: 0.316 µM
27 | CC(=O)Nc1cc(-c2ccc(N3CCN(C)CC3)cc2)cn2c(-c3ccc(F)cc3)cnc12 | inconclusive: 35.5 µM [inhibitor, single point]
28 | CC(C)Cn1c(N)c(C(=O)COC(=O)CC23CC4CC(CC(C4)C2)C3)c(=O)n(C)c1=O | inconclusive: 17.8 µM [inhibitor, partial curve, poor fit]
29 | CC1=C/C(=N\Nc2ccccc2[N+](=O)[O-])CC(C)(C)C1 | inactive
30 | Cc1ccc(/C=N/N(C)S(=O)(=O)c2ccc(C)cc2)cc1 | inactive
31 | CCN(CC)c1ccc(NS(=O)(=O)c2ccc3c(c2)CCCN3C(C)=O)c(C)c1 | inconclusive: 31.6 µM [inhibitor, partial curve, poor fit]
32 | COC1C(OC(=O)/C=C/C=C/C=C/C=C/C(=O)O)CCC2(CO2)C1C1(C)OC1CC=C(C)C (centres undefined) (tested in a mixture with another compound) | inactive
33 | CC(=O)N1CCc2cc(S(=O)(=O)C(C)CC(=O)Nc3ccc(OC(F)(F)F)cc3)ccc21 (centres undefined) | inactive
34 | COC(=O)c1ccc(CN(c2ccc(C(=O)O)c(O)c2)S(=O)(=O)c2ccc(Cl)c([N+](=O)[O-])c2)cc1 | inconclusive: 37.7 µM [inhibitor, single point]
35 | CC1(C)c2[nH]c3ccccc3c2C[C@H]2C(=O)N(Cc3cccc(F)c3)C(=O)N21 | inconclusive: 39.8 µM [inhibitor, single point]
36 | COc1ccccc1N1CCN(C(=O)c2oc3ccccc3c2NC(=O)C(C)Oc2ccccc2)CC1 (centres undefined) | inactive
37 | Cc1ccc2nc(NC(=O)c3ccccn3)sc2c1 | inconclusive: 10.6 µM [inhibitor, partial curve, poor fit]
38 | Cc1cc(C(=O)N/N=C/c2cc(N=Nc3ccccc3)ccc2O)n[nH]1 | inconclusive: 3.16 µM [inhibitor, single point]
39 | CCOC(=O)c1c(NC(=O)CSc2nnnn2-c2ccccc2)sc2c1CC(C)(C)NC2(C)C | inconclusive: 35.5 µM [inhibitor, partial curve]
40 | COc1ccc(NC(=O)c2cc(-c3cc(C)cc(F)c3)n[nH]2)cc1OC | inconclusive: 0.708 µM [inhibitor, full curve, poor fit]
41 | COc1cc2ccccc2cc1C(=O)N(CCN(C)C)c1nc2ccc(Br)cc2s1 | inconclusive: 25.1 µM [inhibitor, single point]
42 | O=C(NCCCN1CCN(c2ccc(F)cc2)CC1)C1CCCN(c2ncnc3c2nc2n3CCCCC2)C1 (centres undefined) | inconclusive: 31.6 µM [inhibitor, single point]
43 | Cc1cc(-c2nn(-c3ccccc3F)cc2CNCCc2cnccn2)c(C)s1 | inactive
44 | CC1=CC(C)(C)Nc2ccc(OC(=O)C(Cc3ccccc3)N3C(=O)c4ccccc4C3=O)cc21 (centres undefined) | inconclusive: 2.24 µM [inhibitor, partial curve, poor fit]

Row | SMILES | Potency
45 | O=C(CCCOc1ccc(Cl)cc1Cl)N/N=C/c1ccc(Cl)cc1 | inconclusive: 39.8 µM [inhibitor, single point]
46 | COc1ccc(CNC(=O)C2CCCN(S(=O)(=O)c3ccc4c(c3)CCCN4C(C)=O)C2)cc1 (centres undefined) | inactive
47 | COc1ccc([C@@H]2CC=C(C(=O)O)[C@H](c3ccc(C)cc3)N2S(=O)(=O)c2ccc(C)cc2)cc1OC | inactive
48 | COc1cc(C)c(NC(=O)COc2cccc3c2OC(C)(C)C3)cc1OC | inconclusive: 37.7 µM [inhibitor, single point]
49 | O=C(CSC(=S)N1CCOCC1)c1ccccc1 | inconclusive: 15.8 µM [inhibitor, single point]
50 | N=C1S/C(=C\c2cccc3ccccc23)C(=O)N1c1ccc(F)cc1 | inconclusive: 10 µM [inhibitor, partial curve, poor fit]
51 | CCCCN(C)S(=O)(=O)c1cc2c(cc1Br)CCN2C(=O)C1CC1 | inconclusive: 14.1 µM [inhibitor, partial curve, poor fit]
52 | CC(=O)Nc1cc(-c2cccc(C(=O)NCCO)c2)cn2c(-c3cccc(C(F)(F)F)c3)cnc12 | inconclusive: 20 µM [inhibitor, partial curve, poor fit]
53 | Cc1[nH]n(-c2ccccc2)c(=O)c1/C=N/NC(=O)C(C)C | inconclusive: 37.7 µM [inhibitor, single point]
54 | COc1ccc(-c2noc(-c3ccc(NCc4ccccc4OC)c([N+](=O)[O-])c3)n2)cc1 | inactive
55 | CN(C(=O)c1cccc(NC(=O)Cc2cccc([N+](=O)[O-])c2)c1)C1CCCCC1 | inconclusive: 31.6 µM [inhibitor, partial curve]
56 | COc1cc(SC)ccc1C(=O)Nc1ccc(Cl)cn1 | inconclusive: 37.7 µM [inhibitor, single point]
57 | OCCNCc1ccc(OCc2ccc(Cl)cc2Cl)cc1 | inconclusive: 35.5 µM [inhibitor, single point]
58 | COc1cccc(NC(=S)NC(=O)/C=C/c2ccc(F)cc2)c1 | inactive
59 | CCc1c(C)sc2c1CCN(Cc1ccc(F)cc1)C2c1ccccc1 (centres undefined) | inconclusive: 39.8 µM [inhibitor, partial curve, poor fit]
60 | O=C(NC1CCCCC1)c1cc(F)cc2c1OCOC2 | inconclusive: 1.78 µM [inhibitor, partial curve, poor fit]
61 | O=C(NCc1ccc(F)cc1)c1ccc(NC(=O)N2CC3CCCN3c3ccccc32)cc1 (centres undefined) | inactive
62 | CCCCCCn1c(=O)n2n(c1=O)[C@@H]1CN(S(=O)(=O)c3ccc(C)cc3)C[C@]1(O)[C@@H](OC(=O)NCC1CCCCC1)C2 | inconclusive: 39.8 µM [inhibitor, single point]
63 | CCCCN(CC)CCCNC(=O)c1cc2c(-c3ccc(OC)c(OC)c3)nn(C)c2s1 | inconclusive: 31.6 µM [inhibitor, single point]
64 | CCCN(CCC)CCNC(=O)c1cc2c(-c3ccccc3F)nn(C)c2s1 | inconclusive: 31.6 µM [inhibitor, partial curve, poor fit]
